Results are given in words; binding and its absence hold for the method and conditions named. In cells and extracts the contact can be indirect. Some binding calls cover weakened binding; strength is not graded here. For some assays here: Sequences can lack the tags named with a protein.
How the values were obtained:
[1] = biological target: T1, Bioease-tagged HSET aa1–150 (human) (UniProt Q9BW19); test: pull-down; whole-cell extracts of HeLa cells expressing Bioease-tagged HSET fragments, streptavidin pull-down, western blotting
T1 sequence: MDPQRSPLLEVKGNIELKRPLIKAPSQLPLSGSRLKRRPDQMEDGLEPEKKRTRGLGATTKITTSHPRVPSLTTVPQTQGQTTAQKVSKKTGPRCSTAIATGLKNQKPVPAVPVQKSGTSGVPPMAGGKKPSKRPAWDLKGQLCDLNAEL

[2] = biological target: CEP215 (human, HeLa) (human (endogenous in HeLa)) (UniProt Q96SN8); test: co-IP; whole-cell extracts of mitotic HeLa cells, immunoprecipitation by an anti-CEP215 antibody or random IgG, western blotting
[3] = biological target: T2, CEP215 aa500–700 (tagged fragment expressed in HeLa cells) (human) (UniProt Q96SN8); test: pull-down; whole-cell extracts of HeLa cells expressing FLAG-tagged CEP215 fragments (FLAG pull-down) or of CEP215-depleted HeLa cells expressing Bioease-tagged CEP215 fragments (streptavidin pull-down), western blotting
T2 sequence: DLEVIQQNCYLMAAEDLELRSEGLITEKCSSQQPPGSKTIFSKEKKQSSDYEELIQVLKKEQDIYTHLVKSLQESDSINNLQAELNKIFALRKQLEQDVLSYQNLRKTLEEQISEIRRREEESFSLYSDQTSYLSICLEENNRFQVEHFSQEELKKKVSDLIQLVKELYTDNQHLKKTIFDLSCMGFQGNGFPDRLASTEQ

[4] = biological target: T3, CEP215 aa300–600 (tagged fragment expressed in HeLa cells) (human) (UniProt Q96SN8); test: as above
T3 sequence: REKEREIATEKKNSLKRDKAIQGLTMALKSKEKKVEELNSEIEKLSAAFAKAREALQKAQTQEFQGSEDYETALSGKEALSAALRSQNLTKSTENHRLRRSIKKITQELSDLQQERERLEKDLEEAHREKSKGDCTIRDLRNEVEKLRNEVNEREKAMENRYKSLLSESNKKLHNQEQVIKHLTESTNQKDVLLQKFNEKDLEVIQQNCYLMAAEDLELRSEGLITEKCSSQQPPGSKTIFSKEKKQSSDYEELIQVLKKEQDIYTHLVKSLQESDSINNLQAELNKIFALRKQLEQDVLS

[5] = biological target: T4, centrosomin (Cnn) (Drosophila (endogenous in Dmel2)) (UniProt P54623); test: co-IP; whole-cell extracts of Drosophila Dmel2 cells, immunoprecipitation by an anti-centrosomin (Cnn) antibody, western blotting
T4 sequence: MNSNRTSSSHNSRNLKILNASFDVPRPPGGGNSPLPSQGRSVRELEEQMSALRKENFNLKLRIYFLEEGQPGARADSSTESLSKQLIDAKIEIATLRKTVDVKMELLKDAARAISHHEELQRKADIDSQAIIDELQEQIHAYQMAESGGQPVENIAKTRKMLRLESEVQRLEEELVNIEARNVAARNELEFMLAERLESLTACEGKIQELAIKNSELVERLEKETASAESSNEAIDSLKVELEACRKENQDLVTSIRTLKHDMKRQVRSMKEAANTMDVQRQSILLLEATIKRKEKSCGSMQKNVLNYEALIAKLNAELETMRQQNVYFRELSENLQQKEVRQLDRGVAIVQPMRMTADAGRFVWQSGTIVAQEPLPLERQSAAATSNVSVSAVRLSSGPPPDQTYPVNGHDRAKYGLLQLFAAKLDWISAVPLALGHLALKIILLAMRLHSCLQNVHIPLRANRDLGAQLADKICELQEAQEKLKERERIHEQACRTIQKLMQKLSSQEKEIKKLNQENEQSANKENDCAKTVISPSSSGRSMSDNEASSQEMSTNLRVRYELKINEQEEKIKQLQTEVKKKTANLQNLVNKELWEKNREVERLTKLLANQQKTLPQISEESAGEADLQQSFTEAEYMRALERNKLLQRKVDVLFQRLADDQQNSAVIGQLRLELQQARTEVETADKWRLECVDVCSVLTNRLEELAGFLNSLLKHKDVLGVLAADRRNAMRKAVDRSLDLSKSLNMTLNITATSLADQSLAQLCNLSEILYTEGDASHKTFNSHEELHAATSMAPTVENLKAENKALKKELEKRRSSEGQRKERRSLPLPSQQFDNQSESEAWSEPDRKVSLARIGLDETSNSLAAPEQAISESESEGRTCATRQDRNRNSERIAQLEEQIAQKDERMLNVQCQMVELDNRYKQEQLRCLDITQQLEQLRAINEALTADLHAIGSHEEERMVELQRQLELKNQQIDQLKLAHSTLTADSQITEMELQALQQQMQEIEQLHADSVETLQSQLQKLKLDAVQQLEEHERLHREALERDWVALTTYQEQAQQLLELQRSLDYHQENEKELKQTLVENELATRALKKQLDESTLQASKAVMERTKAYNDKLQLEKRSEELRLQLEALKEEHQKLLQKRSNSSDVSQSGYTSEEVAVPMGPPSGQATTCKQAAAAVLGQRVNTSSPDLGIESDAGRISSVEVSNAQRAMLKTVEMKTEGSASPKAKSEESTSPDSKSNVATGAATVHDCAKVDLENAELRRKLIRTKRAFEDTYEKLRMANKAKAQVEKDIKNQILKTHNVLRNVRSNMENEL

Which binding [1] does the source give for “CEP215 (human, HeLa) (from UniProt Q96SN8 1-1893)” here?
The binding was “binds”.

B1: HSET (human, HeLa) (protein, UniProt Q9BW19 1-673)
chain: MDPQRSPLLEVKGNIELKRPLIKAPSQLPLSGSRLKRRPDQMEDGLEPEKKRTRGLGATTKITTSHPRVPSLTTVPQTQGQTTAQKVSKKTGPRCSTAIATGLKNQKPVPAVPVQKSGTSGVPPMAGGKKPSKRPAWDLKGQLCDLNAELKRCRERTQTLDQENQQLQDQLRDAQQQVKALGTERTTLEGHLAKVQAQAEQGQQELKNLRACVLELEERLSTQEGLVQELQKKQVELQEERRGLMSQLEEKERRLQTSEAALSSSQAEVASLRQETVAQAALLTEREERLHGLEMERRRLHNQLQELKGNIRVFCRVRPVLPGEPTPPPGLLLFPSGPGGPSDPPTRLSLSRSDERRGTLSGAPAPPTRHDFSFDRVFPPGSGQDEVFEEIAMLVQSALDGYPVCIFAYGQTGSGKTFTMEGGPGGDPQLEGLIPRALRHLFSVAQELSGQGWTYSFVASYVEIYNETVRDLLATGTRKGQGGECEIRRAGPGSEELTVTNARYVPVSCEKEVDALLHLARQNRAVARTAQNERSSRSHSVFQLQISGEHSSRGLQCGAPLSLVDLAGSERLDPGLALGPGERERLRETQAINSSLSTLGLVIMALSNKESHVPYRNSKLTYLLQNSLGGSAKMLMFVNISPLEENVSESLNSLRFASKVNQCVIGTAQANRK
B1 was tested. Which binding [2] did it give?
The binding was “binds”.

And the binding [3]?
The binding was “binds”.

What about the binding [4] of the same molecule?
The binding was “binds”.

B2: non-claret-disjunctional (ncd) (protein, UniProt P20480 1-700)
chain: MESRLPKPSGLKKPQMPIKTVLPTDRIRAGLGGGAAGAGAFNVNANQTYCGNLLPPLSRDLNNLPQVLERRGGGARAASPEPMKLGHRAKLRRSRSACDINELRGNKRTAAAPSLPSIPSKVSRLGGALTVSSQRLVRPAAPSSITATAVKRPPVTRPAPRAAGGAAAKKPAGTGAAASSGAAAAAPKRIAPYDFKARFHDLLEKHKVLKTKYEKQTEDMGELESMPQQLEETQNKLIETESSLKNTQSDNECLQRQVKQHTAKIETITSTLGRTKEELSELQAIHEKVKTEHAALSTEVVHLRQRTEELLRCNEQQAAELETCKEQLFQSNMERKELHNTVMDLRGNIRVFCRIRPPLESEENRMCCTWTYHDESTVELQSIDAQAKSKMGQQIFSFDQVFHPLSSQSDIFEMVSPLIQSALDGYNICIFAYGQTGSGKTYTMDGVPESVGVIPRTVDLLFDSIRGYRNLGWEYEIKATFLEIYNEVLYDLLSNEQKDMEIRMAKNNKNDIYVSNITEETVLDPNHLRHLMHTAKMNRATASTAGNERSSRSHAVTKLELIGRHAEKQEISVGSINLVDLAGSESPKTSTRMTETKNINRSLSELTNVILALLQKQDHIPYRNSKLTHLLMPSLGGNSKTLMFINVSPFQDCFQESVKSLRFAASVNSCKMTKAKRNRYLNNSVANSSTQSNNSGSFDK
With B2 as the molecule, how does the binding [5] read?
Its binding is “no binding”.
